{
  "source": "PubChem BioAssay AID2147",
  "about": "(National Center for Advancing Translational Sciences (NCATS), 2009)",
  "note": "Out of some 230,000 compounds screened, about 3,600 (1.6%) were called active. The inconclusive results got no clear call from the source; some entries with a clear call stand among them for comparison. The call rests on the fitted dose curve; in most records, active means well fitted inhibition curve with a large enough effect (not every such curve was filed as active); inconclusive means small, poorly fitted or top-dose-only effect, or another doubt; inactive means no such curve, though single readings can be large or run the other way. Where the call is inconclusive, the potency comes from a doubtful curve fit. Further: nearly all actives have a fitted effect of over 50% in size. Potency means the concentration at half of the fitted maximal effect; tags describe the fitted curve by direction and shape.",
  "data": [
    {"molecular_target": "Lysine-specific demethylase 4E (Homo sapiens) (UniProt B2RXH2)", "sequence (B2RXH2 whole entry, looked up, the tested form may be a part)": "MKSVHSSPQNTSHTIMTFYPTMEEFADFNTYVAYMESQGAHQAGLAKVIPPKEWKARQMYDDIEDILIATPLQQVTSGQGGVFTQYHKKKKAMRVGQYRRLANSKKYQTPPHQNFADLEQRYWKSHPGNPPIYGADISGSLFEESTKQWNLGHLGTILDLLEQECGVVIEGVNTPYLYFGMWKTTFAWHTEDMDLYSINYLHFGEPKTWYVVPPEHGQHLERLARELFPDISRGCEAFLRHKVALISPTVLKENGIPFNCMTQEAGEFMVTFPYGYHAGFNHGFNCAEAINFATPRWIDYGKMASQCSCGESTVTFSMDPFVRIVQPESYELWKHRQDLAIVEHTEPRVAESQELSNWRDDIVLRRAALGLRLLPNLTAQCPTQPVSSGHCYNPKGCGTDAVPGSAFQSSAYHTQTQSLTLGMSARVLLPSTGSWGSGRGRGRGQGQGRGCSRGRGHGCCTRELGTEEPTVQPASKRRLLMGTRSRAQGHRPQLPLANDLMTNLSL", "test": "qHTS Assay for Inhibitors of Human Jumonji Domain Containing 2E (JMJD2E)", "conditions": "JMJD2E catalytic domain, FDH-coupled NADH fluorescence (FDH is formaldehyde dehydrogenase); series mostly up to 57.1 µM", "values": [
      {"smiles": "CC1CCN(CCc2nc3cc(NC(=O)NC4CCCCC4)ccc3n2C)CC1", "Potency": "inconclusive: 28.2 µM [inhibitor, partial curve]"},
      {"smiles": "O=S(=O)(Nc1nc2ccccc2nc1NCc1ccco1)c1ccccc1", "Potency": "inconclusive: 28.2 µM [inhibitor, partial curve]"},
      {"smiles": "Cc1cnn(C(=O)c2cc(-c3ccccc3)nc3ccccc23)c1", "Potency": "inconclusive: 35.5 µM [inhibitor, single point]"},
      {"smiles": "Cc1cc(Nc2ccc(Cl)cc2)n(-c2ccccc2)n1", "Potency": "inactive"},
      {"smiles": "CC(=O)Oc1ccc(Cl)cc1/C=C/c1ccc2ccccc2n1", "Potency": "inconclusive: 28.2 µM [inhibitor, partial curve]"},
      {"smiles": "CCOC(=O)CC(NCc1ccc(OC)c(OCC)c1)c1ccc(C)cc1", "note": "(stereo not given)", "Potency": "inactive"},
      {"smiles": "CNC(=O)C1=NCCCc2cc(OC)c(OC)cc21", "Potency": "inconclusive: 39.8 µM [inhibitor, single point]"},
      {"smiles": "O=C(CN1CCCc2ccccc21)NC(=O)NCc1ccccc1", "Potency": "inactive"},
      {"smiles": "Cc1cc(NC(=O)Nc2ccc(F)cc2F)n(C)n1", "Potency": "inconclusive: 15.8 µM [inhibitor, single point]"},
      {"smiles": "CCOC(=O)c1c(NC(=O)/C=C/C(=O)O)sc(C)c1-c1ccc(F)cc1", "Potency": "inactive"},
      {"smiles": "CC(=O)Oc1c(C)cc(O)c2ccccc12", "Potency": "inconclusive: 39.8 µM [inhibitor, single point]"},
      {"smiles": "COc1cccc(-n2c(CN3CCN(c4cccc(C)c4)C(C)C3)nc3ccc([N+](=O)[O-])cc3c2=O)c1", "note": "(stereo not given)", "Potency": "inactive"},
      {"smiles": "O=C(c1ccccc1)N1CCN(Cc2ccccc2)CC1", "Potency": "inconclusive: 39.8 µM [inhibitor, single point]"},
      {"smiles": "CC(=O)Cc1nsc(NC(=O)c2ccc(-c3ccccc3Cl)o2)n1", "Potency": "inconclusive: 25.1 µM [inhibitor, partial curve]"},
      {"smiles": "Cc1ccc(-n2ncc3c(=O)n(CC(=O)N4CCN(c5ccccc5)CC4)cnc32)cc1", "Potency": "inconclusive: 31.6 µM [inhibitor, single point]"},
      {"smiles": "Clc1cccc(-c2cc3nc4c(c(N5CCOCC5)n3n2)CCCC4)c1", "Potency": "inconclusive: 28.2 µM [inhibitor, partial curve]"},
      {"smiles": "O=C(CCSCc1ccc(Cl)cc1)NCc1ccco1", "Potency": "inactive"},
      {"smiles": "C=CCn1c(=NC(=O)c2cc(Cl)sc2Cl)sc2cc(S(N)(=O)=O)ccc21", "Potency": "inconclusive: 25.1 µM [inhibitor, single point]"},
      {"smiles": "CCOC(=O)c1cn(CC(=O)Nc2cccc(F)c2)nn1", "Potency": "inactive"},
      {"smiles": "Cc1cc(C)n2cc(COc3ccc4ccccc4c3)nc2n1", "Potency": "inconclusive: 39.8 µM [inhibitor, single point]"},
      {"smiles": "C=C1c2cccc(O)c2C(O)=C2C(=O)[C@]3(O)C(O)=C(C(N)=O)C(=O)C(N(C)C)C3C(O)C12", "note": "(stereo not given in full)", "Potency": "active: 8.91 µM"},
      {"smiles": "O=C(NC(=S)NNS(=O)(=O)c1ccccc1)c1ccccc1[N+](=O)[O-]", "Potency": "inactive"},
      {"smiles": "CCc1nc(-c2ccccc2)c2ccccn12", "Potency": "inconclusive: 31.6 µM [inhibitor, partial curve]"},
      {"smiles": "O=C1c2ccccc2C(=O)C12OC(c1ccccc1)C1(C(=O)c3ccccc3C1=O)C2c1cccc([N+](=O)[O-])c1", "note": "(stereo not given)", "Potency": "inactive"},
      {"smiles": "COc1cccc(-c2csc(NNC(=O)c3cccs3)n2)c1", "Potency": "inconclusive: 31.6 µM [inhibitor, single point]"},
      {"smiles": "Cc1ccc(C)c2[nH]c(=O)c(C(c3nnnn3C(C)(C)C)N3CC=C(c4ccc(F)cc4)CC3)cc12", "note": "(stereo not given)", "Potency": "inconclusive: 25.1 µM [inhibitor, single point]"},
      {"smiles": "Cc1ccc(S(=O)(=O)NN2C(=O)/C(=C/c3ccccn3)SC2=S)cc1", "Potency": "inactive"},
      {"smiles": "OC1(c2ccc(F)cc2)CN(c2ccccc2)C2=[N+]1CCS2", "note": "(stereo not given)", "Potency": "inconclusive: 39.8 µM [inhibitor, single point]"},
      {"smiles": "CCCCCCn1c(C)nc2c(c1=O)c1nc3ccccc3nc1n2/N=C/c1ccco1", "Potency": "inconclusive: 17.8 µM [inhibitor, partial curve]"},
      {"smiles": "Cc1cc(NC(=O)Cn2nc([N+](=O)[O-])c(Br)c2C)no1", "Potency": "inactive"},
      {"smiles": "COC(=O)/C=C/C(=O)N1CCN(c2cccc(Cl)c2)CC1", "Potency": "inconclusive: 35.5 µM [inhibitor, single point]"},
      {"smiles": "CCOc1cc(C2NC(=S)NC(C)=C2C(=O)Nc2ccccc2)ccc1O", "note": "(stereo not given)", "Potency": "inactive"},
      {"smiles": "N#Cc1nc(/C=C/c2ccccc2)oc1NCCCN1CCOCC1", "Potency": "inconclusive: 28.2 µM [inhibitor, partial curve]"},
      {"smiles": "CCOC(=O)C1CCCN(CC(=O)Nc2c(C(=O)OC)[nH]c3ccc(Br)cc23)C1", "note": "(stereo not given)", "Potency": "inconclusive: 28.2 µM [inhibitor, single point]"},
      {"smiles": "CCc1cccc2c(C(=O)CSc3nncn3C)c[nH]c12", "Potency": "inactive"},
      {"smiles": "CCCOC(=O)C1=C(C)NC2=C(C(=O)CC(C)(C)C2)C1c1ccc(N(C)C)cc1", "note": "(stereo not given)", "Potency": "inconclusive: 39.8 µM [inhibitor, single point]"},
      {"smiles": "CC1C(=O)NN=C1C(=O)N/N=C/c1ccco1", "note": "(stereo not given)", "Potency": "inactive"},
      {"smiles": "O=C(Nc1ccc(/C=C/c2nc3ccccc3o2)cc1)c1ccc(F)cc1", "Potency": "inconclusive: 3.55 µM [inhibitor, single point]"},
      {"smiles": "CCOC(=O)c1[nH]c(=O)[nH]c1COC(=O)c1cc2ccccc2o1", "Potency": "inconclusive: 39.8 µM [inhibitor, single point]"},
      {"smiles": "N=c1n(Cc2ccc(Cl)cc2)c2ccccc2n1CC(O)COc1ccccc1", "note": "(stereo not given)", "Potency": "inactive"},
      {"smiles": "Clc1cc(Br)ccc1OCCOCCN1CCOCC1", "Potency": "inactive"},
      {"smiles": "OCCN1CCN(c2nc3ccccc3nc2-c2ccccc2)CC1", "Potency": "inconclusive: 31.6 µM [inhibitor, partial curve]"},
      {"smiles": "CC(=O)Nc1ccc(/C=C/c2ccc3c([N+](=O)[O-])cccc3n2)cc1", "Potency": "inactive"},
      {"smiles": "CCOC(=O)c1ccc2nc(CCC(=O)N[C@H](C(=O)OC)C(C)C)c(=O)n(CC)c2c1", "Potency": "inconclusive: 25.1 µM [inhibitor, single point]"},
      {"smiles": "CCc1cc2c(NCCC(=O)O)ncnc2s1", "Potency": "inconclusive: 39.8 µM [inhibitor, single point]"},
      {"smiles": "Cc1cc2nc3c(=O)n(CCc4ccccc4)c(=O)[nH]c3nc2cc1N", "Potency": "active: 31.6 µM"},
      {"smiles": "COc1cccc(C2(O)CC(C(F)(F)F)=NN2C(=O)c2ccccn2)c1", "note": "(stereo not given)", "Potency": "inactive"},
      {"smiles": "CC1(C)CC(=O)C=C(NCc2ccc(Cl)c(Cl)c2)C1", "Potency": "inactive"},
      {"smiles": "O=C1O/C(=C\\c2ccccc2)c2ccccc21", "Potency": "inconclusive: 31.6 µM [inhibitor, single point]"},
      {"smiles": "Cc1ccc(-c2cc(C(=O)N3CCN(c4ccc(F)cc4)CC3)c3ccccc3n2)o1", "Potency": "inconclusive: 31.6 µM [inhibitor, partial curve]"},
      {"smiles": "CC(=O)Nc1ccc2nc(-c3ccncc3)[nH]c2c1", "Potency": "inconclusive: 22.4 µM [inhibitor, partial curve]"},
      {"smiles": "O=C(CN1CCN(c2ncccn2)CC1)N(Cc1ccccc1)c1ccc(F)cc1", "Potency": "inconclusive: 39.8 µM [inhibitor, single point]"},
      {"smiles": "c1ccc(-c2nc(-c3nccc4ccccc34)oc2-c2ccccc2)cc1", "Potency": "inconclusive: 14.1 µM [inhibitor, partial curve]"},
      {"smiles": "COC(=O)c1ccc(-n2nc(C(F)(F)F)c3c2-c2ccoc2CC3)cc1", "Potency": "inactive"},
      {"smiles": "Oc1c(C2=NCCNC(C(F)(F)F)=C2)ccc2ccccc12", "Potency": "inactive"},
      {"smiles": "C=CCNC(=S)N1CCN(c2cccc(C(F)(F)F)c2)CC1", "Potency": "inactive"},
      {"smiles": "COc1ccccc1NC(=O)N1c2ccc(F)cc2CCC1C", "note": "(stereo not given)", "Potency": "inconclusive: 39.8 µM [inhibitor, single point]"},
      {"smiles": "CC(=O)Cn1nnc2sc(-c3ccccc3)cc2c1=O", "Potency": "inconclusive: 28.2 µM [inhibitor, partial curve]"},
      {"smiles": "O=C(O)c1cc(N2C(=O)CCC2=O)ccc1NCc1cccnc1", "Potency": "inconclusive: 28.2 µM [inhibitor, partial curve]"},
      {"smiles": "O=C(O)c1ccc(N=NN2CCCCCC2)cc1", "Potency": "inactive"},
      {"smiles": "CCOC(=O)c1ccccc1NC(=O)c1cn(-c2ccc(C)c(C)c2)c(=O)c2ccccc12", "Potency": "inconclusive: 17.8 µM [inhibitor, partial curve]"},
      {"smiles": "O=c1oc2c(CN3CCCCC3)c(O)ccc2c2c1CCCC2", "Potency": "inconclusive: 28.2 µM [inhibitor, partial curve]"},
      {"smiles": "O=C(O)c1c(Cl)nc2ccccn12", "Potency": "inactive"},
      {"smiles": "COc1ccc2cc(S(=O)(=O)N3CCOCC3)ccc2c1", "Potency": "inconclusive: 39.8 µM [inhibitor, single point]"},
      {"smiles": "COc1cc2c(C(=O)NCCCOC(C)C)cn(CC(C)C)c(=O)c2cc1OC", "Potency": "inconclusive: 28.2 µM [inhibitor, single point]"},
      {"smiles": "CNc1oc(C)nc1S(=O)(=O)c1ccc(C)cc1", "Potency": "inconclusive: 39.8 µM [inhibitor, single point]"},
      {"smiles": "Cc1ccc(OCCCNC2CCCC2)cc1", "Potency": "inconclusive: 35.5 µM [inhibitor, single point]"},
      {"smiles": "CCOC(=O)N1CCN(S(=O)(=O)c2ccc(C(=O)Nc3nnc(C)o3)cc2)CC1", "Potency": "inconclusive: 39.8 µM [inhibitor, single point]"},
      {"smiles": "CC(C)OC(=O)CSc1nnc2c(n1)[nH]c1ccc(F)cc12", "Potency": "inactive"},
      {"smiles": "COc1ccccc1C1CN(c2ccc(F)cc2F)N=C1c1cccs1", "note": "(stereo not given)", "Potency": "inconclusive: 25.1 µM [inhibitor, partial curve]"},
      {"smiles": "COc1ccc(NC(=O)c2c([N+](=O)[O-])c(C(C)(C)C)nn2C)cc1", "Potency": "inactive"},
      {"smiles": "Cc1cc(-c2ccccc2)nc(Oc2cccc(C(F)(F)F)c2)c1S(C)(=O)=O", "Potency": "inconclusive: 35.5 µM [inhibitor, single point]"},
      {"smiles": "CC1(C)CC(=O)c2sc(NS(=O)(=O)c3ccc(Br)cc3)nc2C1", "Potency": "inactive"},
      {"smiles": "COC(=O)C/C=C/[C@@H](C)[C@@H](Cc1ccccc1Br)OC", "Potency": "inactive"},
      {"smiles": "CCOCCCNC(=O)/C(C#N)=C/c1ccc(C)o1", "Potency": "inconclusive: 35.5 µM [inhibitor, single point]"}
    ]}
  ]
}
